# Experimental data published in the supplement of paper PMC8728848.
# Some of the results follow.
# Experiments:
# Test in all cases: glycan array binding signal (z-score within array); higher = stronger binding
# Conditions in all cases: glycan notation: IUPAC condensed, linker removed
# [1] = target: Gal(b1-4)GalNAc(a1-3)[Fuc(a1-2)]Gal(b1-4)GlcNAc
# In short: (§1)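 The binding signal is a Z-score computed within each array. Data were drawn from 3228 arrays in the Consortium for Functional Glycomics database, restricted to those with a known protein sequence. Scores were averaged over arrays of the same protein sequence at different concentrations or buffers, and over linkers, and negative values can be taken as non-binding.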
# [2] = target: Gal(b1-4)GalNAc(b1-3)[Fuc(a1-2)]Gal(b1-4)GlcNAc
# In short: as §1
# [3] = target: Gal(b1-4)Glc
# In short: as §1
# [4] = target: Gal(b1-4)Glc6S
# In short: as §1
# [5] = target: Gal(b1-4)GlcNAc
# In short: as §1
# [6] = target: Gal(b1-4)GlcNAc(a1-6)Gal(b1-4)GlcNAc
# In short: as §1
# [7] = target: Gal(b1-4)GlcNAc(b1-2)Man
# In short: as §1
# [8] = target: Gal(b1-4)GlcNAc(b1-2)Man(a1-3)Man(b1-4)GlcNAc(b1-4)GlcNAc
# In short: as §1
# [9] = target: Gal(b1-4)GlcNAc(b1-2)Man(a1-3)[Gal(b1-4)GlcNAc(b1-2)Man(a1-6)]Man(b1-4)GlcNAc(b1-4)GlcNAc
# In short: as §1
# [10] = target: Gal(b1-4)GlcNAc(b1-2)Man(a1-3)[Gal(b1-4)GlcNAc(b1-2)Man(a1-6)]Man(b1-4)GlcNAc(b1-4)[Fuc(a1-6)]GlcNAc
# In short: as §1
# [11] = target: Gal(b1-4)GlcNAc(b1-2)Man(a1-3)[Gal(b1-4)GlcNAc(b1-2)Man(a1-6)][Gal(b1-4)GlcNAc(b1-4)]Man(b1-4)GlcNAc(b1-4)[Fuc(a1-6)]GlcNAc
# In short: as §1
# [12] = target: Gal(b1-4)GlcNAc(b1-2)Man(a1-3)[Gal(b1-4)GlcNAc(b1-2)Man(a1-6)][GlcNAc(b1-4)]Man(b1-4)GlcNAc(b1-4)[Fuc(a1-6)]GlcNAc
# In short: as §1
# [13] = target: Gal(b1-4)GlcNAc(b1-2)Man(a1-3)[Gal(b1-4)GlcNAc(b1-2)][GlcNAc(b1-4)]Man(b1-4)GlcNAc(b1-4)GlcNAc
# In short: as §1
# [14] = target: Gal(b1-4)GlcNAc(b1-2)Man(a1-3)[GlcNAc(b1-2)Man(a1-6)]Man(b1-4)GlcNAc(b1-4)GlcNAc
# In short: as §1
# [15] = target: Gal(b1-4)GlcNAc(b1-2)Man(a1-3)[GlcNAc(b1-4)][Gal(b1-4)GlcNAc(b1-2)Man(a1-6)]Man(b1-4)GlcNAc(b1-4)GlcNAc
# In short: as §1
# [16] = target: Gal(b1-4)GlcNAc(b1-2)Man(a1-3)[Man(a1-6)]Man(b1-4)GlcNAc(b1-4)GlcNAc
# In short: as §1
# [17] = target: Gal(b1-4)GlcNAc(b1-2)Man(a1-6)Man(b1-4)GlcNAc(b1-4)GlcNAc
# In short: as §1
# [18] = target: Gal(b1-4)GlcNAc(b1-2)Man(a1-6)[GlcNAc(b1-2)Man(a1-3)]Man(b1-4)GlcNAc(b1-4)GlcNAc
# In short: as §1
# [19] = target: Gal(b1-4)GlcNAc(b1-2)Man(a1-6)[Man(a1-3)]Man(b1-4)GlcNAc(b1-4)GlcNAc
# In short: as §1
# [20] = target: Gal(b1-4)GlcNAc(b1-2)[Gal(b1-4)GlcNAc(b1-4)]Man(a1-3)[Gal(b1-4)GlcNAc(b1-2)Man(a1-6)]Man(b1-4)GlcNAc(b1-4)GlcNAc
# In short: as §1
# [21] = target: Gal(b1-4)GlcNAc(b1-2)[Gal(b1-4)GlcNAc(b1-4)]Man(a1-3)[Gal(b1-4)GlcNAc(b1-2)[Gal(b1-4)GlcNAc(b1-6)]Man(a1-6)]Man(b1-4)GlcNAc(b1-4)GlcNAc
# In short: as §1
# [22] = target: Gal(b1-4)GlcNAc(b1-2)[Gal(b1-4)GlcNAc(b1-4)]Man(a1-3)[GlcNAc(b1-4)][Gal(b1-4)GlcNAc(b1-2)Man(a1-6)]Man(b1-4)GlcNAc(b1-4)GlcNAc
# In short: as §1
binder,measurement,setting,value
Gal 7 (Homo sapiens) (protein) MSNVPHKSSLPEGIRPGTVLRIRGLVPPNASRFHVNLLCGEEGGSDAALHFNPRLDTSEVVFNSKEGGSWGREERGPGVPFGRGQPFEVLIIASDDGFKAVVGDAQYHHFRHRLPLARVRLVEVGGDVQLDSVRIF,glycan array binding signal (z-score),[1],-0.35
same,glycan array binding signal (z-score),[2],-0.367
same,glycan array binding signal (z-score),[3],0.167
same,glycan array binding signal (z-score),[4],0.576
same,glycan array binding signal (z-score),[5],-0.218
same,glycan array binding signal (z-score),[6],-0.285
same,glycan array binding signal (z-score),[7],-0.139
same,glycan array binding signal (z-score),[8],-0.314
same,glycan array binding signal (z-score),[9],0.369
same,glycan array binding signal (z-score),[10],-0.017
same,glycan array binding signal (z-score),[11],-0.263
same,glycan array binding signal (z-score),[12],-0.265
same,glycan array binding signal (z-score),[13],0.272
same,glycan array binding signal (z-score),[14],-0.265
same,glycan array binding signal (z-score),[15],-0.275
same,glycan array binding signal (z-score),[16],-0.132
same,glycan array binding signal (z-score),[17],-0.212
same,glycan array binding signal (z-score),[18],-0.289
same,glycan array binding signal (z-score),[19],-0.318
same,glycan array binding signal (z-score),[20],-0.286
same,glycan array binding signal (z-score),[21],-0.115
same,glycan array binding signal (z-score),[22],-0.177
